This note sets out measurements from PubChem BioAssay (NCI).

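48-hour exposure; five concentrations; linearly interpolated endpoints. Here, GI50 denotes the concentration required for 50% inhibition of growth. TGI: concentration producing complete growth inhibition.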

In this assay the test system is NCI-H322M lung. Description: NCI tumour cell line growth inhibition, 48 h.
Compound `CC(C)(C)c1ccc(O)c(CN(Cc2cc(C(C)(C)C)ccc2O)C2CCCCC2)c1` displayed a TGI of 43.4 µM. With `O=C1C(=O)N(c2cccc(C(F)(F)F)c2)C(=O)C(=O)C1c1nc2ccccc2s1`, the TGI was more than 100 µM.

In turn, `CC1(C)CN=C(Nc2ccc(F)c(F)c2)S1` displayed a TGI of more than 100 µM.

`COc1ccccc1NC(=S)Nc1cc(C)ccn1` yielded a TGI of more than 100 µM. The same measure, in the same setting: the value for `N#Cc1c(N)c(C#N)c2c(c1-c1ccc(Cl)cc1)COc1ccccc1-2` was 21.3 µM; that for `O=C(NNC(=S)NCc1ccccc1)C12CC3CC(CC(C3)C1)C2` was more than 100 µM; that for `CC(=O)O[C@H]1C(=O)[C@@]2(C)[C@H]([C@H](OC(=O)c3ccccc3)[C@@]3(O)C[C@H](O)C(C)=C1C3(C)C)[C@]1(OC(C)=O)CO[C@@H]1C[C@@H]2O` was more than 100 µM. Regarding `N#Cc1c(-c2ccccc2)c(C#N)c(=O)n(C2OC(CO)C(O)C(O)C2O)c1S` (configuration not stated), the TGI was more than 100 µM. Same read-out and setting: next, `Cc1nc(Nc2ccccc2)sc1C(=O)CC(=O)C(=O)NC12CC3CC(CC(C3)C1)C2`: more than 100 µM; `CCO[C@@H]1OC(=O)[C@@](C)(C(C)=O)[C@@H]1C`: 48.4 µM; `CC(C)CN(CC#N)CC(C)C`: more than 100 µM.

The compound `C[C@]12CC/C(=N\OCCN3CCCCC3)C=C1CCC1C2CC[C@@]2(C)C1CC[C@]2(C)O` (some centres not stated) registered a TGI of 34.6 µM.

Regarding `CN(C)CCNC(=O)c1cccc2ncc(-c3ccccc3)nc12`, the TGI was 35.1 µM.

The compound `COC(=O)C(C(=O)C(=O)Nc1ccc(OC)cc1[N+](=O)[O-])c1nc2cc(C)c(C)cc2[nH]c1=O` (configuration not stated) gave a TGI of more than 100 µM. The same measure, in the same setting: the value for `CCN(CC)COC(=S)S` was more than 100 µM.

As to `O=C(Nc1nc(-c2ccc(Cl)cc2)nc2c1sc(=S)n2-c1ccccc1)C(F)(F)F`, the GI50 is 6.95 µM and the TGI is 43.1 µM. `CSc1nc(NC2OC(COC(C)=O)C(OC(C)=O)C(OC(C)=O)C2OC(C)=O)c(N=C(C)C(C)=O)c(=O)n1C` (configuration not stated) displayed a TGI of more than 100 µM. On the same count and under the same terms, next, `COc1ccc(NC(=O)CCc2cc(C(C)(C)C)n[nH]2)cc1`: more than 100 µM; `COc1ccc2c(CCNS(=O)(=O)c3ccccc3)c(C(C)=O)[nH]c2c1`: more than 100 µM; `COC(=O)c1c2c(cc3c1CC1(Cc4cc5c(cc4C1)CCC5)C3)CCC2`: more than 100 µM. The compound `O=C1C2ON3c4ccccc4C(=O)C3(c3ccccc3)C2C(=O)N1c1ccccc1` (configuration not stated) came in with a TGI of more than 100 µM. On to `CO[C@@H]1[C@H]2[C@@H](C)c3ccoc3C[C@@H]2[C@@]2(C)CC[C@H](OC(=O)c3ccccc3)[C@](C)(C(=O)O)[C@]2(O)[C@@H]1OC(=O)c1ccccc1`, for which the GI50 is 11.3 µM and the TGI is more than 50 µM.

In turn, `CCOC(=O)c1c2cccccc2n2c(=O)cc(C)nc12` displayed a TGI of more than 100 µM. Same read-out and setting: the value for `COc1cc(C23OCC(Cc4cc5c(cc42)OCO5)C3CO)cc(OC)c1OC` (configuration not stated) was more than 100 µM. `C[N+](C)([O-])Cc1cc(-c2ccccc2)ccc1O` displayed a TGI of more than 100 µM.

Take `O=C1C(Cl)=C(N2CCN(c3ccccn3)CC2)C(=O)c2ncccc21`: the TGI was found to be 24.8 µM. Same read-out and setting: the value for `O=c1c(-c2ccc(O)cc2)coc2cc(OC3OC(CO)C(O)C(O)C3O)cc(O)c12` (configuration not stated) was more than 100 µM. On the same count and under the same terms, next, `COc1cc2c(c(OC(C)=O)c1OC(C)=O)-c1ccc(SC)c(=O)cc1C(NC(C)=O)CC2` (configuration not stated): 46 µM. In the case of `O=C(O)Cn1c2c(c3c(O)cccc31)C(=O)c1ccccc1-2`, the GI50 was more than 100 µM and the TGI was more than 100 µM. As for `CN(C)c1ccc(C(=NN)c2ccc(N(C)C)cc2)cc1`, the TGI was more than 100 µM. Still for that read-out and setting: the value for `CCN(CC)CC(C)(C)C(=O)/C=C/c1ccc(/C=C/C(=O)C(C)(C)CN(CC)CC)cc1` was 2.82 µM; that for `CCN(CC)CCCC(C)Nc1cc(/C=C/c2ccc(Cl)cc2)nc2cc(N(C)C)ccc12` (configuration not stated) was 3.22 µM. Same read-out and setting: next, `O=C(O)CCSC(=S)Nc1cccc(F)c1`: more than 100 µM. On the same count and under the same terms, next, `CC1=CC(C)(C)Nc2ccc(CSc3ccccc3)cc21`: more than 100 µM. On to `CC[C@@H](C)Nc1cc(C(=O)NC2CC3CCC(C2)N3c2ccc(C(=O)C3CC3)cn2)c(C)cc1C(N)=O` (some centres not stated), for which the GI50 is 15.4 µM and the TGI was more than 100 µM.

The compound `CC[C@@H](/C=C\CCC1(C[C@@H](N)CCC=C(C)C)OCCO1)O[Si](C(C)C)(C(C)C)C(C)C` returned a TGI of 31.4 µM. Still for that read-out and setting: next, `CCOC(=O)NC(Nc1ccc(Cl)cn1)(C(F)(F)F)C(F)(F)F`: more than 100 µM. On the same count and under the same terms, next, `COc1ccc(Nc2nc3ccccc3nc2C(=O)O)cc1OC`: more than 100 µM. The same measure, in the same setting: next, `Nc1ccccc1N=Nc1c(S(=O)(=O)O)cc2cc(S(=O)(=O)O)cc(O)c2c1O`: more than 100 µM; `O=C(Nn1cnn2c(=O)c3ccccc3nc2c1=O)c1ccccc1`: more than 100 µM; `O=[N+]([O-])c1cccc2nc3ccccc3c(NCCCN3CCCCC3)c12`: 0.0894 µM.

As to `COc1ccc2c(-c3ccc(O)cc3)c(Oc3ccc(Cl)cc3)c(=O)oc2c1`, the TGI came to 23.9 µM. `CCCCCCCCCOC(=S)NCCCCC` registered a TGI of more than 100 µM.

Take `CCN(CC)C(=S)SS(=O)(=O)c1ccccc1[N+](=O)[O-]`: the TGI was more than 100 µM. Take `BrCC(Br)(c1ccccc1)c1ccccc1-c1cc(-c2ccccc2)cc(-c2ccccc2)n1` (configuration not stated): the TGI was more than 58.3 µM.

With `COc1cc(/C=C\c2cc(/C=C\c3ccc(O)c(OC)c3)n(C(=O)CNc3ccc(Cl)cc3)n2)ccc1O`, the GI50 was 3.59 µM and the TGI was 18.2 µM. Compound `CN(C)C(=O)C1CCN(Cc2c[nH]c3ccccc23)CC1` displayed a TGI of more than 100 µM.

In turn, `Oc1cc(CN2COc3ccccc32)c(O)cc1CNC1CCCCC1` yielded a TGI of more than 100 µM. With `Cc1c(C2Cc3ccccc3N2)c2ccccc2n1C` (configuration not stated), the TGI was more than 100 µM. Same read-out and setting: the value for `CN(C)Cc1cc(N=Nc2ccc(Cl)cc2)ccc1O` was 44 µM. The same measure, in the same setting: next, `CCCOC1OC(CS(=O)(=O)O)C(O)C(O)C1O` (configuration not stated): more than 100 µM; `CC(=N)N(C)O`: more than 100 µM. As for `Nc1nc(N)c(N=Nc2ccc(C(=O)O)c(O)c2)c(N)n1`, the TGI is more than 100 µM.

Consider `COC(=O)C1=C(O)[C@H](C(=O)OC)[C@]2(O)[C@@H](C(=O)OC)[C@H]1C[C@@H](c1ccc(OC(=O)/C=C/c3ccco3)cc1)[C@@H]2C(=O)OC`, for which the GI50 was 52.3 µM and the TGI was more than 100 µM. The compound `O=C(CN(c1ccc(S(=O)(=O)O)cc1)c1ccc(S(=O)(=O)O)cc1)Nn1cnc2ccc(S(=O)(=O)N(c3ccc(S(=O)(=O)O)cc3)c3ccc(S(=O)(=O)O)cc3)cc2c1=O` registered a TGI of more than 100 µM.

For the compound `Cc1c(-c2ccccc2)c(C#N)c2nnn(-c3cccc(Cl)c3)c(=O)n12`, the TGI was more than 100 µM. Still for that read-out and setting: the value for `O=C(c1ccccc1)c1c(CC(O)c2ccccc2)n(C(=O)c2ccccc2)c2ccccc12` (configuration not stated) was more than 100 µM. Same read-out and setting: the value for `C#CCN(N=O)C(=O)NCCCC(NC(C)=O)C(=O)NCc1ccccc1` (configuration not stated) was more than 100 µM.

Consider `O=C1CN(c2ccc(Cl)cc2)C(=O)CN1NCNN1CC(=O)N(c2ccc(Cl)cc2)CC1=O`, for which the TGI was more than 100 µM.

As to `COc1cc(/C=C\c2ccc(OC(C)=O)cc2)cc(OC)c1OC`, the TGI was more than 100 µM. On the same count and under the same terms, the value for `COC(=O)[C@@H]1Cc2cc(O)c(O)cc2C2(CCN(C)CC2)O1` was more than 10 µM. On to `Cc1cc(NNC(=O)c2ccccc2O)nc(Nc2nc3ccccc3o2)n1`, for which the GI50 was 0.849 µM and the TGI is 15.9 µM. In turn, `NC(N)=NS(=O)(=O)c1ccc(NC(=O)c2ccc3[nH]c4ccccc4c(=O)c3c2)cc1` registered a TGI of more than 100 µM. Consider `CCOC(=O)NC(=S)c1ccc(O)c2ccccc12`, for which the TGI is more than 100 µM. The same measure, in the same setting: next, `COc1ccc(/C=C2/CCS(=O)(=O)c3ccc(C)cc3C2=O)cc1OC`: 27.8 µM.

Compound `CC(=O)N/C(=C\c1ccc(/C=C(\NC(C)=O)C2=NC3C(=O)c4ccccc4C(=O)C3N2)cc1)C1=NC2C(=O)c3ccccc3C(=O)C2N1` (configuration not stated) gave a TGI of more than 100 µM. On the same count and under the same terms, the value for `CC(=O)Oc1c(C)c2c(c3ccccc13)OC(C)(C)C2` was 29.3 µM; that for `CC(=O)Oc1c2oc3cc(O)c(O)cc3c2c(OC(C)=O)c2oc3cc(O)c(O)cc3c12` was more than 100 µM; that for `O=C(O)C12C3CCC(O3)C1(C(=O)O)C1CCC2O1` (configuration not stated) was more than 100 µM. Still for that read-out and setting: next, `CCN(CC)CCNc1ccc2nnn3c4ccccc4c(=O)c1c23`: 9.09 µM. Take `O=C(Cn1c(C(=O)c2ccccc2)nc2ccccc21)c1ccc(F)cc1`: the GI50 was 51.6 µM and the TGI is more than 100 µM. On to `Nc1ccc2c(c1)Oc1c(F)c(F)cc3c(=O)c(C(=O)O)cn-2c13`, for which the TGI is more than 100 µM. The same measure, in the same setting: next, `CC(=O)ON(C(C)=O)C1C(COC(c2ccccc2)(c2ccccc2)c2ccccc2)OC2OC3(CCCC3)OC21` (configuration not stated): more than 100 µM.

In the case of `COc1ccc2c(c1)C(=O)c1c-2n(CCCN)c(=O)c2cc(OC)c(OC)cc12`, the GI50 is 0.476 µM and the TGI came out at 1.79 µM.

Consider `CCN(CC)CCNc1ccc(C)c2sc3ccccc3c(=O)c12`, for which the TGI worked out at 9.71 µM. Still for that read-out and setting: next, `c1ccc(C2=Nc3cccc4cccc(c34)N2)cc1`: more than 100 µM; `CC(=O)[O-].[O-]c1c(Cl)cc(Cl)cc1/C=N/Nc1ccccn1.[Zn+2]`: 59.5 µM. `CCCN1C(=O)/C(=C/c2ccc(O)cc2)SC1=Nc1ccc(OC)cc1`: the GI50 is 15.6 µM and the TGI stood at 31.2 µM.

In the case of `O=C(Nc1cccnc1)c1ccc2ccc3ccc(C(=O)Nc4cccnc4)nc3c2n1`, the GI50 was 0.114 µM and the TGI is more than 100 µM. On to `C=CCn1cnc2c(=O)[nH]c(Nc3ccccc3)nc21`, for which the TGI is more than 100 µM. With `CC(O[Si](c1ccccc1)(c1ccccc1)C(C)(C)C)[C@H](NC(=O)OC(C)(C)C)C(=O)O` (some centres not stated), the TGI is more than 100 µM.

Turning to `CC(C)(C)NC/C(=C\c1ccccc1)C(=O)c1ccccc1`, the GI50 is 7.55 µM and the TGI came out at 22.6 µM. Take `COC(=O)C(=O)C(C(=O)C=C(C)C)C(=O)C(=O)Nc1nc2ccc([N+](=O)[O-])cc2s1` (configuration not stated): the TGI was more than 100 µM.

Regarding `CN1CCN(Cc2ccc(NC(=O)c3cncc(C#Cc4cnn5ccccc45)c3)cc2C(F)(F)F)CC1`, the GI50 is 1.4 µM and the TGI is 3.74 µM. `C=C1C(=O)OC2CC3(C)CCCC(C)C3=CC12` (configuration not stated) displayed a TGI of 28.9 µM. The same measure, in the same setting: next, `COc1ccc(/C=c2/sc3n(c2=O)NC(c2ccc(Cl)cc2)NN=3)cc1` (configuration not stated): more than 100 µM.

With `CN(C)c1ccc(C2ON=C(c3ccccc3)N2C23CC4CC(CC(C4)C2)C3)cc1` (configuration not stated), the TGI worked out at 6.78 µM. On to `CCc1nc2cc(/C=C/C(=O)NO)ccc2c(=O)n1CCc1ccc(F)cc1`, for which the GI50 is 2.4 µM and the TGI was more than 100 µM.
